Test system: gram positive bacteria
Test: Test for antibacterial activity (in words)
Format: cell-based
Details: gram positive bacteria including Staphylococcus pyogenes, Streptococcus faecalis, pathogenic Mycobacterium species

C=Cc1cc(OC)c2c(c1)c(=O)oc1c2cc(OC)c2c(O)ccc(C3OC(C)C(OC(C)=O)C(N(C)C)C3O)c21 (stereo not shown) [ravidomycin]
antibacterial activity against gram positive bacteria: adversely affecting the growth of gram positive bacteria

From US4230692A, “Ravidomycin and process of preparation” (Ayerst McKenna & Harrison, Inc., priority 1978, dated 1980)
